Consider 3 molecules from PubChem BioAssay (NCI).

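Following 48 hours of exposure in 96-well plates, responses at five concentrations were used to interpolate endpoints linearly. GI50 is the concentration that inhibits growth by half. TGI: total growth inhibition.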

The test relates to NCI-H322M lung. Kind of test: DTP human tumour cell line panel, 48 h.
In general, GI50 refers to the concentration at which growth is held to half of that of the control. Usually TGI stands for the concentration giving total growth inhibition. A high value points to less potent growth arrest. In the case of `C#C[C@]1(O)CC[C@H]2[C@@H]3CC=C4c5sc(Nc6ccc(N(C)C)cc6)nc5CC[C@]4(C)[C@H]3CC[C@@]21C`, the GI50 was 2.51 µM and the TGI came to 10.2 µM.
For the molecule `Cn1cc(-c2nnc(N)nc2-c2c[nH]c3ccccc23)c2cc(Br)cnc21`, the GI50 is 11.9 µM and the TGI was 24.1 µM.
The matching figures for `N/C(=N\c1nc2ccccc2s1)NC(=O)Nc1ccccc1F`: 4.67 µM and 52 µM.
